Source: patent publication US11178870B2 (priority 2017, dated 2021)

How the values were obtained:
Format in all cases: in vivo
Botrytis cinerea = experiment: Test Example B: Gray mold on tomato; conditions: for Test B control value: Gray mold on tomato; for control value, Test B (gray mold on tomato): Table 7, Test B; for Test B control value (gray mold on tomato): class of control value, Table 7
Alternaia brassicicola = experiment: Test Example C: Alternaria sooty spot on cabbage; conditions: for Test C control value: Alternaria sooty spot on cabbage; for control value, Test C (Alternaria sooty spot on cabbage): Table 7, Test C; for Test C control value (Alternaria sooty spot on cabbage): class of control value, Table 7
[1] = tested on: Blumeria graminis f. sp. hordei; experiment: Test Example D: Powdery mildew on barley; conditions: for Test D control value: Powdery mildew on barley; for control value, Test D (powdery mildew on barley): Table 7, Test D; for Test D control value (powdery mildew on barley): class of control value, Table 7
Puccinia recondita = experiment: Test Example E: Brown rust on wheat; conditions: for Test E control value: Brown rust on wheat; for control value, Test E (brown rust on wheat): Table 7, Test E; for Test E control value (brown rust on wheat): class of control value, Table 7
Plasmopara viticola = experiment: Test Example G: Downy mildew on vine; conditions: for Test G control value: Downy mildew on vine, 250 ppm sprayed, 7 to 10 days after inoculation; for Test G control value / Test G control value (downy mildew on vine): 2.5 ml/pot; for control value, Test G (downy mildew on vine): 250 ppm sprayed (2.5 ml/pot) before inoculation, assessed 7 to 10 days after inoculation; for Test G control value (downy mildew on vine): 250 ppm spray, investigated 7 to 10 days after inoculation

SMILES | Test B control value (Botrytis cinerea) | Test C control value (Alternaia brassicicola) | Test D control value [1] | Test E control value (Puccinia recondita) | Test G control value (Plasmopara viticola) | control value, Test B (gray mold on tomato) (Botrytis cinerea) | control value, Test C (Alternaria sooty spot on cabbage) (Alternaia brassicicola) | control value, Test D (powdery mildew on barley) [1] | control value, Test E (brown rust on wheat) (Puccinia recondita) | control value, Test G (downy mildew on vine) (Plasmopara viticola) | further results
CCn1c(-c2c(F)cc(F)cc2F)c(-n2cc(OC)cn2)cc(Cl)c1=O [Compound 128] | L (L shows the control value of 50% or less) | H (H shows the control value more than 50%) | H (H shows the control value more than 50%) | H (H shows the control value more than 50%) | H (H shows the control value more than 50%) | – | – | – | – | – | –
CCn1c(-c2c(F)cccc2Br)c(-n2cc(Cl)cn2)ccc1=O [Compound 216] | – | – | – | – | – | H (H shows the control value more than 50%) | H (H shows the control value more than 50%) | H (H shows the control value more than 50%) | H (H shows the control value more than 50%) | L (L shows the control value of 50% or less) | –
CCn1c(-c2c(F)cccc2F)c(-c2cnco2)cc(Cl)c1=O [Compound 42] | H (H shows the control value more than 50%) | H (H shows the control value more than 50%) | L (L shows the control value of 50% or less) | H (H shows the control value more than 50%) | L (L shows the control value of 50% or less) | – | – | – | – | – | –
Cn1c(-c2c(F)cccc2F)c(-c2sccc2Cl)cc(Cl)c1=O [Compound 439] | – | – | – | – | – | – | – | – | – | – | Test B control value (gray mold on tomato) (Botrytis cinerea): H (H shows the control value more than 50%); Test C control value (Alternaria sooty spot on cabbage) (Alternaia brassicicola): H (H shows the control value more than 50%); Test D control value (powdery mildew on barley) [1]: H (H shows the control value more than 50%); Test E control value (brown rust on wheat) (Puccinia recondita): H (H shows the control value more than 50%); Test G control value (downy mildew on vine) (Plasmopara viticola): H (H shows the control value more than 50%)
Cn1c(-c2c(F)cccc2F)c(-c2sccc2Cl)ccc1=O [Compound 435] | – | – | – | – | – | – | – | – | – | – | Test B control value (gray mold on tomato) (Botrytis cinerea): H (H shows the control value more than 50%); Test C control value (Alternaria sooty spot on cabbage) (Alternaia brassicicola): H (H shows the control value more than 50%); Test D control value (powdery mildew on barley) [1]: L (L shows the control value of 50% or less); Test E control value (brown rust on wheat) (Puccinia recondita): H (H shows the control value more than 50%); Test G control value (downy mildew on vine) (Plasmopara viticola): H (H shows the control value more than 50%)
CCn1c(-c2ccccc2OC)c(-n2ncc(C)c2Cl)cc(Br)c1=O [Compound 249] | – | – | – | – | – | H (H shows the control value more than 50%) | H (H shows the control value more than 50%) | H (H shows the control value more than 50%) | H (H shows the control value more than 50%) | L (L shows the control value of 50% or less) | –
CCn1c(-c2c(F)cccc2F)c(-c2sccc2Br)cc(Cl)c1=O [Compound 365] | – | – | – | – | – | H (H shows the control value more than 50%) | H (H shows the control value more than 50%) | H (H shows the control value more than 50%) | H (H shows the control value more than 50%) | H (H shows the control value more than 50%) | –
CCn1c(-c2c(F)cc(F)cc2F)c(-n2cc(Br)c(C)n2)cc(Br)c1=O [Compound 147] | L (L shows the control value of 50% or less) | H (H shows the control value more than 50%) | L (L shows the control value of 50% or less) | L (L shows the control value of 50% or less) | L (L shows the control value of 50% or less) | – | – | – | – | – | –
O=c1ccc(-n2cc(Cl)cn2)c(-c2ccc(F)cc2Br)n1CC(F)F [Compound 273] | – | – | – | – | – | H (H shows the control value more than 50%) | H (H shows the control value more than 50%) | H (H shows the control value more than 50%) | H (H shows the control value more than 50%) | L (L shows the control value of 50% or less) | –
CCn1c(-c2ccc(OC)cc2Cl)c(-n2cc(F)cn2)ccc1=O [Compound 362] | – | – | – | – | – | H (H shows the control value more than 50%) | H (H shows the control value more than 50%) | H (H shows the control value more than 50%) | H (H shows the control value more than 50%) | H (H shows the control value more than 50%) | –
